Data from PMC9303297, “Characterization of an autonomous pathway complex that promotes flowering in Arabidopsis” (Nucleic Acids Research, 2022).
No constants are given. Whether binding was seen depends on the method and setting. Some results given as binding are weak or reduced against the parent protein; the word gives no strength. Where a sequence is shown, tags or fusion partners need not be part of it.

Legend:
[1] = target: T1, LD, full-length, yeast two-hybrid fusion (Arabidopsis thaliana) (UniProt Q38796); test: two-hybrid; GAL4 AD (pGADT7, AH109) and BD (pGBKT7, Y187) fusions, mated; growth on SD-Leu/Trp/His, 3-amino-1,2,4-triazole to reduce background
T1 sequence: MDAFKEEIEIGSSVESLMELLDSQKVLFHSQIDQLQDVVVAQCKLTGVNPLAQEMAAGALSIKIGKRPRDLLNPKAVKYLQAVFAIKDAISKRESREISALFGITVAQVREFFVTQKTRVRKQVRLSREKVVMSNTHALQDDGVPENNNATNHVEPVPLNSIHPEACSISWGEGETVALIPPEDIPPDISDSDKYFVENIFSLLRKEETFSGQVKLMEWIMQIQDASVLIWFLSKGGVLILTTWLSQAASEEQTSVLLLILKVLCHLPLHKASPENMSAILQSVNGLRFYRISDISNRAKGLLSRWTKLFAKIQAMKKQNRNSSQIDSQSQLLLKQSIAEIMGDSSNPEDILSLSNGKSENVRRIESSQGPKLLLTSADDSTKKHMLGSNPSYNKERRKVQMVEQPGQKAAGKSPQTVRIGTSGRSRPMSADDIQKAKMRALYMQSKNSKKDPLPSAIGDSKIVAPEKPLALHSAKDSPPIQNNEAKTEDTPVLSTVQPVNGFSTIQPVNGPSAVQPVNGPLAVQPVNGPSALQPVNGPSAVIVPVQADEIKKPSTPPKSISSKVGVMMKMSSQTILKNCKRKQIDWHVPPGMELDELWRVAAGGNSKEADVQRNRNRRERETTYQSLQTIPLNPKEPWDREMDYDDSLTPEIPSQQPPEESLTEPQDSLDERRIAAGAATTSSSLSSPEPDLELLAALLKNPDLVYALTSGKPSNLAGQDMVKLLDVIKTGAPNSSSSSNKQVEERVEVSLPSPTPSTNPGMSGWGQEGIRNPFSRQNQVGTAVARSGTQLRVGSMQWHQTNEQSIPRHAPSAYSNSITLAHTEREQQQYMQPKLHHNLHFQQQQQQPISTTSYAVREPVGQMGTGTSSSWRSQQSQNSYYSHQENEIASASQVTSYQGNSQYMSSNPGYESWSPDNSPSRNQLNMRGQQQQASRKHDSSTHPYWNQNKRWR

[2] = target: T2, SDG26, full-length, yeast two-hybrid fusion (Arabidopsis thaliana) (UniProt Q84WW6); test: as above
T2 sequence: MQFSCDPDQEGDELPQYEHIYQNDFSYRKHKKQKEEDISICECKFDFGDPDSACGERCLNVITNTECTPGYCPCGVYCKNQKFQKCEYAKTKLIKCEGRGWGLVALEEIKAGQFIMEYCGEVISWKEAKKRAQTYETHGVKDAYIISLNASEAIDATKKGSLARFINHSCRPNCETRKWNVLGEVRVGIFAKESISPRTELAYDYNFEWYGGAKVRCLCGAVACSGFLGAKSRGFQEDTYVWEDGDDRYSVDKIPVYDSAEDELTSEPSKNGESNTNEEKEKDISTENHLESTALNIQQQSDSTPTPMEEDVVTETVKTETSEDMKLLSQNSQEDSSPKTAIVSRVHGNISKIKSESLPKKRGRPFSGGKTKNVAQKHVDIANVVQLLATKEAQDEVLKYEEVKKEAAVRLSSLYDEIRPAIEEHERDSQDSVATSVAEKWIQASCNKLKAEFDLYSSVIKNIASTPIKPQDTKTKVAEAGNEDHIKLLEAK

B1: FLD, full-length, yeast two-hybrid fusion (protein, UniProt Q9CAE3 1-789)
chain: MVSFSAPKKRRRGRSQRSMSSLNSLPVPNVGLLPGNSNFVSSSASSSGRFNVEVVNGSNQTVKSYPGIGDEIITINKEATTEALLALTAGFPADSLTEEEIEFGVVPIVGGIEQVNYILIRNHIISKWRENISSWVTKEMFLNSIPKHCSSLLDSAYNYLVTHGYINFGIAQAIKDKFPAQSSKSSVIIVGAGLSGLAAARQLMRFGFKVTVLEGRKRPGGRVYTKKMEANRVGAAADLGGSVLTGTLGNPLGIIARQLGSSLYKVRDKCPLYRVDGKPVDPDVDIKVEVAFNQLLDKASKLRQLMGDVSMDVSLGAALETFRQVSGNDVATEEMGLFNWHLANLEYANAGLVSKLSLAFWDQDDPYDMGGDHCFLPGGNGRLVQALAENVPILYEKTVQTIRYGSNGVKVTAGNQVYEGDMVLCTVPLGVLKNGSIKFVPELPQRKLDCIKRLGFGLLNKVAMLFPYVFWSTDLDTFGHLTEDPNYRGEFFLFYSYAPVAGGALLIALVAGEAAHKFETMPPTDAVTRVLHILRGIYEPQGINVPDPLQTVCTRWGGDPFSLGSYSNVAVGASGDDYDILAESVGDGRLFFAGEATTRRYPATMHGAFVTGLREAANMAQSAKARGIRKRIDRNPSRNAHSCAILLADLFRDPDLEFGSFCIIFSRRNPDPKSPAILRVTLSEPRKRNEDPKADQHSNKILFQQLQSHFNQQQQIQVYTLLTRQQALDLREVRGGDEKRLYYLCETLGVKLVGRKGLGVGADSVIASIKAERTGRKLPSSSTSGTKSG
binding [1]: binds

B2: EFL2, full-length, yeast two-hybrid fusion (protein, UniProt Q94BS8 1-119)
chain: MESRMEGDVYSGFGERYQMDGKLLQNFQKSFVQVQDILDQNRLLINEINQNHESKQADHLGRNVGLIRELNNNIRTVASLYGDLSHSFARSVDASSEGESTGTLKSDGKANNQKRFRSG
binding [2]: binds
binding [1]: binds

B3: EFL4, full-length, yeast two-hybrid fusion (protein, UniProt Q570U6 1-114)
chain: MEGDVLSGFGDRHNMDGKLLQSFQKSFVDVQDILDQNRLLINEINQNHESKQPDNLGRNVGLIKELNNNIRRVASLYGDLSHSFARSVDASSEGESSGTLKSDGKANQKRFRSG
binding [2]: binds
binding [1]: binds

B4: EFL1, full-length, yeast two-hybrid fusion (protein, UniProt O80877 1-125)
chain: MEASRNRSLVGNNRSPEMNENDGEDVAASAAVEDVEVWDTLSNGFKRAQLYLDQNRDLIQRVNENHMSRIPDNVSRNVGLINEINGNISQVMEIYSDLSLNFAKKFDQRRRTTKDGDTTTTTTGS
binding [2]: no binding

B5: EFL3, full-length, yeast two-hybrid fusion (protein, UniProt Q8S8F5 1-109)
chain: MEGDTISRMMGSGVQMDGKILQTFEKSFVQVQNILDHNRLLINEINQNHESKIPDNLGRNVGLIRELNNNVRRVAHLYVDLSNNFSKSMEASSEGDSSEGRGNRRIRPA
binding [2]: no binding
